Molecules are shown by their SMILES. Out of some 46,000 compounds screened, about 60 (0.1%) were called active. Not shown: some 3% with an inconclusive outcome. Calls follow the shape of the dose curve; as a rule, active = well fitted inhibition curve with a large enough effect; inconclusive = small, poorly fitted or top-dose-only effect; inactive = no such curve, though single readings can be large or run the other way. Some of the results follow.

The assay is described as follows: Primary qHTS assay for Inhibitors of ovarian cancer metastasis using an organotypic tumor microenvironment (TME) model. Also: nearly all actives have a fitted effect of over 65% in size.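 As to activity change, negative = inhibition: plate controls were DMSO wells for no effect and tomatine positive control wells for full effect.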 As to conditions: SKOV3ip1-GFP adhesion/invasion on 3D omental model, fluorescence; series mostly up to 45.8 µM; activity change, negative = inhibition: at the top concentration. In short, it runs like this: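 Adhesion/invasion was scored as fixed GFP-labeled SKOV3ip1 cell counts (488/509 nm), normalized to DMSO and tomatine controls. Cancer cells in serum-free medium, with four compound doses (0.36-46 umol/L), sat 2 hr at RT then 16 hr at 37 C on a 48 hr fibroblast/mesothelial/ECM culture.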
For orientation: qHTS replaces the single test concentration by a dilution series.
For the compound `COc1cc(/C=C/c2nc3cc(Cl)ccc3c(=O)n2-c2cccc(C(F)(F)F)c2)cc(OC)c1OC`, the “activity change, negative = inhibition” value is inactive: -2.07%. Take `CC1CCCN(Cc2c(O)ccc3c(=O)c(Oc4ccc(C(C)(C)C)cc4)c(C(F)(F)F)oc23)C1` (configuration not stated): the “activity change, negative = inhibition” value is inactive: 12.6%.

For `COc1cc(NC(=O)Nc2nnc(N3CCCCCC3)s2)cc(OC)c1`, the “activity change, negative = inhibition” value was inactive: 9.63%. For `CN(C)S(=O)(=O)c1ccc2c(c1)N(CC(=O)N1CCN(c3cccc(Cl)c3)CC1)CCS2`, the outcome was inactive. Turning to `Cc1ccc(-c2nc3c(cnn3-c3ccccc3)c(=O)n2-c2cccc(Cl)c2)cc1`, the “activity change, negative = inhibition” value was inactive: 1.56%. For `COc1cc(OC)c(N(C)C(=O)C2CCCN(c3ncnc4c3nc3n4CCCCC3)C2)cc1Cl` (configuration not stated), the “activity change, negative = inhibition” value is inactive: 1.95%. In the case of `Cn1c(=O)c(=O)n(C)c2cc(S(=O)(=O)CCC(=O)Nc3cccc(C(F)(F)F)c3)ccc21`, the “activity change, negative = inhibition” value is inactive: 6.98%.

For the compound `O=C(NCC1CCN(Cc2cccc(F)c2)CC1)c1cc2ccc3cccnc3c2[nH]1`, the “activity change, negative = inhibition” value is inactive: 4.05%. Consider `CCOC(=O)c1c(NC(=O)CSc2cn(CCNC(=O)c3ccccc3OC)c3ccccc23)sc2c1CCCC2`, for which the outcome was inactive. Take `CC1=C(c2ccc(C(C)C)cc2)S(=O)(=O)N=C1N1CCC(C(=O)NCc2ccco2)CC1`: the “activity change, negative = inhibition” value is inactive: -1.91%.

`Cc1nn(CC(=O)N2CCN(c3ccccc3)CC2)c(=O)c2cc3cc(F)ccc3n12`: the compound was classed as inactive. Take `CCOc1ccc(NC(=O)c2c(NC(=O)c3cccc(C)c3)sc3c2CCC3)cc1`: the “activity change, negative = inhibition” value is inactive: 5.03%. `CCOc1ccc(NC(=O)Cn2c(=O)n(Cc3ccccc3)c(=O)c3sc4ccccc4c32)cc1`: the “activity change, negative = inhibition” value is inactive: -16.6%. Same read-out and setting: then `Cc1cc(C)cc(NC(=O)CN2C(=O)CSc3ccc(S(=O)(=O)N4CCCC4)cc32)c1`, with inactive: 7.89%; and `COc1ccc(CCNc2ncnc3c2c(-c2ccccc2)cn3-c2cccc(Cl)c2)cc1OC`, with inactive: -15.1%.

As for `CCc1ccc(NC(=O)CC2C(=O)N(c3ccc(OC)cc3)C(=O)N2Cc2ccc(OC)cc2)cc1` (configuration not stated), the compound was called inactive. For the compound `Cc1c(C(=O)NCCc2ccccc2)cccc1-n1cnc2cccnc21`, the compound was classed as inactive. Regarding `C=C(c1ccc(C(=O)O)cc1)c1cc2c(cc1C)C(C)(C)CCC2(C)C`, the “activity change, negative = inhibition” value is inactive: -4.35%. For `Cc1ccc(CNC(=O)Cn2c(=O)cc(-c3ccccc3)c3c(C)nn(C)c32)cc1`, the “activity change, negative = inhibition” value was inactive: 2.96%.

On to `COc1ccccc1N1CCN(S(=O)(=O)CCNC(=O)COc2ccc(F)cc2)CC1`, for which the compound was called inactive.

Consider `Cc1ccn2c(=O)c(C(=O)NCCc3ccc(S(N)(=O)=O)cc3)c(O)nc2c1`, for which the “activity change, negative = inhibition” value is inactive: -4.35%.

As for `CCn1c(=O)c2sccc2n2c(CCCC(=O)N3CCN(c4cc(C)ccc4C)CC3)nnc12`, the “activity change, negative = inhibition” value was inactive: 5.58%. Consider `COc1ccccc1CNC(=O)C1CCN(S(=O)(=O)c2c(C)noc2/C=C/c2cccs2)CC1`, for which the “activity change, negative = inhibition” value was inactive: -9.62%.

Turning to `Cc1cc(=O)n(Cc2ccc(F)cc2Cl)c2c1c(C)nn2-c1ccccc1`, the “activity change, negative = inhibition” value is inactive: 1.27%. Turning to `COc1cccc(NC(=O)N(Cc2cn(C)c3ccccc23)C2CCCCC2)c1`, the “activity change, negative = inhibition” value is inactive: -2.02%. For the compound `Cc1cc(Nc2ccccc2Cl)n2nc(-c3ccco3)nc2n1`, the “activity change, negative = inhibition” value was inactive: -3.81%. For the compound `COc1ccc(NC(=O)NCc2cccn2Cc2ccc(F)cc2)cc1OC`, the “activity change, negative = inhibition” value was inactive: -7.7%. On to `COc1cc(C2C(C(=O)OC(C)C)=C(C)N=C3SCCC(=O)N32)ccc1OCc1ccccc1` (configuration not stated), for which the “activity change, negative = inhibition” value is inactive: -17.9%. With `COc1ccc(S(=O)(=O)NC2(C(F)(F)F)NC(=O)N(CCc3ccc(OC)c(OC)c3)C2=O)cc1` (configuration not stated), the compound was classed as inactive. In the case of `CS(=O)(=O)NCCc1csc2nc(-c3ccccc3)nn12`, the “activity change, negative = inhibition” value was inactive: -5.14%. Same read-out and setting: then `COc1ccc(N2C(=O)CSC23C(=O)N(CC(=O)NCc2ccccc2)c2ccccc23)cc1` (configuration not stated), with inactive: -21.3%. As for `Cc1ccc(NCc2ccccc2-c2nnc(-c3ccccc3Cl)o2)cc1Cl`, the “activity change, negative = inhibition” value is inactive: -7.25%. For the compound `COc1ccccc1CNC(=O)CCCn1nc(C)c2c(C)n(-c3ccc(C)cc3)nc2c1=O`, the “activity change, negative = inhibition” value was inactive: -7.57%.

For `Cc1nc2ccn(Cc3cccnc3)c(=O)c2cc1C(=O)NCc1ccc(Cl)cc1`, the “activity change, negative = inhibition” value is inactive: 4.26%. The same measure, in the same setting: then `O=C(Cn1cc(S(=O)(=O)N2CCN(c3ccccc3F)CC2)c2ccccc2c1=O)Nc1cccc(C(F)(F)F)c1`, with inactive: -12.3%.

For `Cc1ccccc1CNC(=O)CCCn1c(=O)c2cccn2c2ccccc21`, the compound was called inactive. `Cc1cccc2c1-c1sc(C(=O)N3CCN(c4ccc(F)cc4)CC3)cc1CO2`: the “activity change, negative = inhibition” value was inactive: -11.8%.

As to `CC(=O)c1ccc(N2CCN(S(=O)(=O)c3cc(-c4onc(C)c4C)ccc3C)CC2)cc1`, the “activity change, negative = inhibition” value was inactive: -9.02%. Consider `O=C(NCCc1ccccc1)C(=O)NCC(c1cccnc1)N1CCN(c2ccccc2)CC1` (configuration not stated), for which the “activity change, negative = inhibition” value is inactive: 0.355%. As to `COc1ccc(C(=O)Nc2ccc3c(c2)N(C2CCCC2)C(=O)c2ccccc2S3)cc1OC`, the “activity change, negative = inhibition” value is inactive: -9.35%. In the case of `CCOc1cccc(CC(=O)N2CCc3c([nH]c4ccccc34)C2c2ccc(C)cc2)c1OCC` (configuration not stated), the compound was called inactive. As to `Cc1ccc(C)c(-c2nn(CC(=O)Nc3cc(F)ccc3F)c(=O)c3c2CCCC3)c1`, the “activity change, negative = inhibition” value was inactive: 10.7%. Take `CC(CNC(=O)c1ccc(CSc2nc3ccncc3n2Cc2cccc(F)c2)cc1)c1ccccc1` (configuration not stated): the “activity change, negative = inhibition” value is inactive: -6.41%. With `COc1cc(C(=O)Nc2ccc(Cl)c(-c3nc4ncccc4o3)c2)cc(OC)c1OC`, the compound was called inactive.

With `COC(=O)c1c(SC)nc2ccccc2c1OCc1ccc(C)cc1C`, the result was inactive.

For the compound `O=C(CSc1nnc2scc(-c3ccc(Cl)cc3)n12)Nc1ccccc1F`, the “activity change, negative = inhibition” value is inactive: 9.08%.

For `Cc1ccc(-c2cc(C(F)(F)F)n3nc(C(=O)Nc4sc5c(c4C#N)CCC(C)C5)cc3n2)cc1` (configuration not stated), the “activity change, negative = inhibition” value was inactive: 3.05%.
